Assay results: PubChem BioAssay AID1460 (National Center for Advancing Translational Sciences (NCATS), 2008)
Several values for one entry are separate records, joined by “and”; a condition that tells them apart may be missing. Equal values may be shown once. Hit rate of the full screen: of about 270,000 compounds, about 5,800 (2.1%) were called active. This list was built around the results that the source calls inconclusive (neither active nor inactive); the mix of calls is not that of the screen. Calls come from the whole dose curve; as a rule, active = well fitted inhibition curve with a large enough effect; inconclusive = small, poorly fitted or top-dose-only effect; inactive = flat fitted curve, though single readings scatter. A potency beside an inconclusive call is a rough fit, not a confirmed value.

target: Microtubule-associated protein tau (Homo sapiens) (UniProt P10636); assay: qHTS for Inhibitors of Tau Fibril Formation, Thioflavin T Binding; settings: recombinant tau K18 P301L, heparin-induced fibrillization, ThT fluorescence; series mostly up to 57.4 µM; note: nearly all actives have a fitted effect of over 55% in size
Procedure, shortened: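 ThT emission at 510 nm, taken 1 hr after adding 30 uM dye, quantifies aggregates formed when 20 uM heparin acts on human tau K18 P301L for 6 hr at 37 C.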
% is set by controls: 0 for no effect and ±100 for the full control effect; potency is the fitted concentration of half-maximal effect; tags give direction and shape of the fitted curve.

UniProt P10636, sequence (P10636 whole entry, looked up): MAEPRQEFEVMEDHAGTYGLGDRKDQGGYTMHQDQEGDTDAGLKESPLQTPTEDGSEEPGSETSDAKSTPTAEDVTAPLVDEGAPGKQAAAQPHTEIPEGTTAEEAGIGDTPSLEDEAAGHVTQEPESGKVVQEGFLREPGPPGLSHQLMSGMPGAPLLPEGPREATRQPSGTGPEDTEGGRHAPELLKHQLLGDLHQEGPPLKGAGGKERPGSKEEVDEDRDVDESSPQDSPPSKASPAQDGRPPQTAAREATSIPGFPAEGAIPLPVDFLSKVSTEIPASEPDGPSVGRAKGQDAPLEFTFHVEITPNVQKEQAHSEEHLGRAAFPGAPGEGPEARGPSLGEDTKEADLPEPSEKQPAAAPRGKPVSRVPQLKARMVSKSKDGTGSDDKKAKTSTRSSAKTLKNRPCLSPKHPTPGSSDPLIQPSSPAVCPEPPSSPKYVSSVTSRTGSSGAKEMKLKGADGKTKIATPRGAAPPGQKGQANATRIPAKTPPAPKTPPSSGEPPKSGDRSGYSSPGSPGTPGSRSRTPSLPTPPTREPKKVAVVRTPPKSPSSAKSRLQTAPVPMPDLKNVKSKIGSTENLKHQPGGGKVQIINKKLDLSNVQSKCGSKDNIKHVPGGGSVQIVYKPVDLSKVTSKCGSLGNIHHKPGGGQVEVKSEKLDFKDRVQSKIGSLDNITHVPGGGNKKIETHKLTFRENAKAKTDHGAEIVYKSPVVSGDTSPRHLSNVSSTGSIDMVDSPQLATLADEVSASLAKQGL

| SMILES | Potency | activity, negative = inhibition |
| --- | --- | --- |
| CCOc1ccc(-c2cc3nc(C4CCN(C(=O)OC(C)(C)C)CC4)c(C(=O)Nc4ccc(C)cc4C)cn3n2)cc1 | inconclusive: 17.8 µM [inhibitor, partial curve] |  |
| CC(C)c1nc(N2CCN(C(=O)c3ccccc3)CC2)c(C#N)c2c1COC(C)(C)C2 | inactive |  |
| Cc1nc(Sc2ccccc2)c(C#N)c(C)c1[N+](=O)[O-] | inconclusive: 12.6 µM [inhibitor, partial curve] |  |
| O=C(NCCc1c[nH]c2ccccc12)C(=O)NCC1OCCN1S(=O)(=O)c1ccccc1 (centres undefined) | inconclusive: 0.178 µM [inhibitor, partial curve, poor fit] |  |
| COc1cc2c(c(OC)c1)C(c1cc(OC)c(OC)c(OC)c1)CC(=O)N2 (centres undefined) | inactive |  |
| Cc1ccc(Cl)cc1-n1c(=O)cc(N2CCN(C(=O)c3ccco3)CC2)[nH]c1=O | inconclusive: 31.6 µM [inhibitor, single point] |  |
| Cc1c2cnn(-c3ccccc3)c(=O)c2c(C)n1CC(=O)NCc1ccccc1 | inconclusive: 4.47 µM [inhibitor, single point] |  |
| CN(O)/C=c1/ccc2c(n1)C(=O)C=CC=2 | inconclusive: 17.8 µM [inhibitor, partial curve] |  |
| CC(C)=NOC[C@@H](O)[C@@H]1O[C@@H]2OC(C)(C)O[C@@H]2[C@H]1O |  | inactive: 0.0449% [at 11.5 µM] |
| CCOc1ccc(S(=O)(=O)Nc2ccc(-c3ccc(OC)nn3)cc2)cc1 | inconclusive: 17.8 µM [inhibitor, single point] |  |
| CC1=C(C(=O)Nc2ccccc2)C(c2ccc(C)o2)n2c(s/c(=C\c3ccco3)c2=O)=N1 (centres undefined) | active: 12.6 µM |  |
| Cc1cc(C)cc(NC(=O)CCc2c(C)nc3c4cccnc4nn3c2C)c1 | inconclusive: 25.1 µM [inhibitor, partial curve] |  |
| CCOC(=O)c1sc(NC(=S)NC(=O)c2ccccc2)c(C(=O)OCC)c1C | inactive |  |
| O=C(NC(=S)Nc1cnc2ccccc2c1)c1ccccc1 | inactive |  |
| O=C(CSc1cn(CC(=O)N2CCCC2)c2ccccc12)Nc1cc(C(F)(F)F)ccc1Cl | inconclusive: 28.2 µM [inhibitor, single point] |  |
| CNc1nc(-c2ccc3c(c2)CCN3C(=O)c2cccc(F)c2)cs1 | inconclusive: 22.4 µM [inhibitor, partial curve] |  |
| Cc1cccc(CCNC(=O)C2CCCN(S(=O)(=O)c3ccc4c(c3)oc(=O)n4C)C2)c1 (centres undefined) | inactive |  |
| Cc1ccc2nc(-c3ccc(NC(=S)NC(=O)C(C)C)cc3)sc2c1 | inconclusive: 1.26 µM [inhibitor, full curve] |  |
| COc1ccc(CCNCC2C(Oc3ccc(Cl)cc3)C(=O)N2c2ccccc2C)cc1OC (centres undefined) | inactive |  |
| COc1cc(NC(=O)c2ccc(NC(=O)N3CCSc4ncccc43)cc2)cc(OC)c1 | inactive |  |
| COc1ccc(CCNC(=O)c2ccc(CNS(=O)(=O)c3ccccc3)cc2)cc1OC | inconclusive: 14.1 µM [inhibitor, partial curve] and inconclusive: 8.91 µM [inhibitor, full curve] |  |
| Cc1ccc(-n2[nH]c(C)c(/C=N/N3C(=O)c4cccc5cccc(c45)C3=O)c2=O)cc1 | active: 22.4 µM |  |

| SMILES | Potency | activity, negative = inhibition |
| --- | --- | --- |
| CC1(C)C(O)C=C[C@@]2(C)C1CC(=O)O[C@@]1(C)C3=CC(=O)OC(c4ccoc4)[C@]3(C)CCC21 (some centres undefined) | inconclusive: 17.8 µM [inhibitor, partial curve, poor fit] |  |
| CCOC(=O)CC(=O)CSc1nc(-c2cccnc2)ccc1C#N | inconclusive: 15.8 µM [inhibitor, partial curve] |  |
| O=C(NCCO)C1CCN(C(=O)c2ccc(-c3ccccc3)cc2)CC1 | inactive |  |
| C/C(=N/NC(=O)c1ccco1)c1cccc(NC(=O)c2ccc(C)s2)c1 | inconclusive: 0.562 µM [inhibitor, full curve] |  |
| Cc1ccc(Cl)cc1N1CCN(C(=O)CN(c2ccccc2)S(=O)(=O)N(C)C)CC1 | inconclusive: 15.8 µM [inhibitor, partial curve] |  |
| O=C(Nc1ccc(Cl)c([N+](=O)[O-])c1)ONC1=NCCCCC1 | inactive |  |
| O=C(COc1cccc2ccccc12)N1CCN(c2ccccc2)CC1 | inconclusive: 22.4 µM [inhibitor, partial curve] |  |
| COc1ccc(C(CNC(=O)c2cccc(N(C)C)c2)N2CCCC2)cc1 (centres undefined) | inconclusive: 25.1 µM [inhibitor, single point] |  |
| COc1c(-c2ccc(O)c(O)c2)oc2cc(O)cc(O)c2c1=O | inconclusive: 14.1 µM [inhibitor, partial curve] and inconclusive: 22.4 µM [inhibitor, partial curve] |  |
| COc1ccccc1N1CCN(C(=O)COc2ccc(Cl)cc2Br)CC1 | inconclusive: 25.1 µM [inhibitor, single point] |  |
| O=C(c1ccc(CS(=O)c2ccccc2Cl)o1)N1CCN(c2cccc(Cl)c2)CC1 (centres undefined) | inconclusive: 15.8 µM [inhibitor, partial curve] |  |
| Cc1ccc(/C=C2/SC(=S)N(CCC(=O)N3CCN(C)CC3)C2=O)cc1 | inconclusive: 25.1 µM [inhibitor, partial curve] |  |
| CCOC(=O)c1c(N)sc(=S)c2c1CCC2 | active: 25.1 µM |  |
| CCOC(=O)C1=C(c2ccccc2)N2CCS(=O)(=O)N=C2S1 | inactive |  |
| COc1ccc(NC(=O)c2c(C)oc3ccc(O)c(CN4CCN(Cc5ccccc5)CC4)c23)cc1 | inconclusive: 8.91 µM [inhibitor, partial curve] |  |
| C=CCN1CCc2c(cc(O)c(O)c2Br)[C@@H](c2ccccc2)C1 | inconclusive: 17.8 µM [inhibitor, partial curve, poor fit] and inconclusive: 2 µM [inhibitor, full curve, poor fit] |  |
| CCOC(=O)c1cnc2ccc(OCC)cc2c1N(C)Cc1ccccc1 | inconclusive: 22.4 µM [inhibitor, single point] |  |
| COc1ccc(/C=C(/C#N)c2nc(-c3ccc(Br)cc3)cs2)cc1 | inconclusive: 7.94 µM [inhibitor, partial curve] |  |
| CCOC(=O)c1ccc(N2C(=O)c3n[nH]c(-c4cccs4)c3C2c2ccc(Cl)cc2Cl)cc1 (centres undefined) | inactive |  |
| O=S1(=O)N=C(N/N=C/C=C/c2ccccc2)c2ccccc21 | inconclusive: 11.2 µM [inhibitor, partial curve] |  |
| Cc1cc(C(=O)NNC(=O)c2cccc(C(F)(F)F)c2)no1 | inactive |  |
| O=C(Nc1cccc(S(=O)(=O)Nc2ccc(Cl)cc2)c1)c1ccc(Cl)nc1 | inactive |  |

| SMILES | Potency | activity, negative = inhibition |
| --- | --- | --- |
| CCOC(=O)CC1C(=O)NCCN1c1nc2c(C)cccn2c(=O)c1/C=C1\SC(=S)N(C(C)CC)C1=O (centres undefined) | active: 7.94 µM |  |
| Cc1cc(C(F)F)n2nc(C(=O)Nc3sc4c(c3C#N)CCC(C)C4)nc2n1 (centres undefined) | inconclusive: 28.2 µM [inhibitor, partial curve] |  |
| NS(=O)(=O)c1ccc2c(c1)C1C=CCC1C(C1CC=CCC1)N2 (centres undefined) | active: 35.5 µM |  |
| O=C(CCS(=O)(=O)c1ccc(Cl)cc1)Oc1ccc2c(c1)OCO2 | inconclusive: 17.8 µM [inhibitor, partial curve] |  |
| Cc1c(C(=O)NN)[nH]c2ccc([N+](=O)[O-])cc12 | inconclusive: 17.8 µM [inhibitor, partial curve, poor fit] |  |
| CN(CC(=O)Nc1ccccc1-c1ccccc1)Cc1ccccc1Cl | inactive |  |
| Oc1ccccc1OCc1nc2ccccc2s1 | inconclusive: 8.91 µM [inhibitor, full curve] |  |
| CCOc1ccc(N=Cc2c(C)[nH]n(-c3nc4ccccc4[nH]3)c2=O)cc1 | inconclusive: 2.82 µM [inhibitor, full curve] |  |
| CCOC(=O)c1nnc2c(-c3ccc(Cl)cc3)c(C)nn2c1C | active: 7.94 µM |  |
| CC(C)(C)C(=O)/C(C#N)=c1\s/c(=C\c2ccncc2)c(=O)n1CCCN1CCOCC1 | inconclusive: 11.2 µM [inhibitor, partial curve] |  |
| Oc1c(CN2CCN(c3ccccn3)CC2)cc(Cl)c2cccnc12 | inconclusive: 15.8 µM [inhibitor, partial curve] |  |
| N#CCCN/N=C(\Cc1nc2ccccc2[nH]1)c1ccccc1 | inconclusive: 31.6 µM [inhibitor, partial curve] |  |
| COCCN1C=C2C(=O)C(C)(OC(=O)CCC(=O)OC)C(=O)C=C2C=C1C1CC1 (centres undefined) | inactive |  |
| C/C=C/c1ccc(OCCCNC(C)CC)c(OC)c1 (centres undefined) | inactive |  |
| COC(=O)c1c(NC(=O)CN2C(=O)c3ccccc3C2=O)sc(Cc2ccc3c(c2)OCO3)c1C | inactive |  |
| CC(=O)N1CCCc2cc(S(=O)(=O)N3CCCC(C(=O)N4CCN(c5cc(C)ccc5C)CC4)C3)ccc21 (centres undefined) | inconclusive: 15.8 µM [inhibitor, partial curve] |  |
| Cc1cc(-c2csc(N)n2)c(C)n1CCc1ccccc1 | inconclusive: 17.8 µM [inhibitor, partial curve] |  |
| COC(=O)[C@@H]1[C@@H](O)[C@]2(O)c3ccccc3O[C@]2(c2ccccc2)[C@H]1c1ccccc1 |  | inactive: 2.73% [at 11.5 µM] |
| CO[C@H]1C[C@@H]2CC[C@@H](C)[C@@](O)(O2)C(=O)C(=O)N2CCCC[C@H]2C(=O)O[C@H](C(C)C[C@H]2CC[C@@H](O)[C@H](OC)C2)CC(=O)[C@H](C)/C=C(\C)[C@@H](O)[C@@H](OC)C(=O)[C@H](C)C[C@H](C)/C=C/C=C/C=C/1C (some centres undefined) | inconclusive: 22.4 µM [inhibitor, partial curve] |  |
| NC(=O)NC(=O)COC(=O)c1cccc(NS(=O)(=O)/C=C/c2ccccc2)c1 | inactive |  |
